ChEMBL document CHEMBL4888484, “Replenishing the malaria drug discovery pipeline: Screening and hit evaluation of the MMV Hit Generation Library 1 (HGL1) against asexual blood stage Plasmodium falciparum ,using a nano luciferase reporter read-out” (2022)
Out of some 150,000 compounds screened, about 540 (0.36%) showed an effect of 50% or more. Some of the results follow.

These compounds were tested on Plasmodium falciparum (assay: Primary screen in NF54 nanoGlo assay, in single point, at 2uM, 72h; a lower Z score goes with more inhibition). Conditions: timepoint 72 hour.
Assay type: functional, Erythrocyte
`Cc1ccc(Cc2cnc(NC(=O)NC[C@H](C)CN3CCN(C)CC3)s2)cc1` was tested, and the “% Inhibition” value was 2% and the Z score was -0.24. `Cc1ccc(NC[C@H]2CCN(Cc3cc(=O)n(C)c(=O)n3C)C2)nc1` was tested, and the “% Inhibition” value was 11% and the Z score was -2.19. In the case of `O=C(C[C@@H]1NC(=O)c2ccccc2N=C1O)Nc1ccc(OC(F)(F)F)cc1`, the “% Inhibition” value is reported as -3% and the Z score is reported as 0.41. For `OCc1ccnc(N[C@H]2CCCOC2)n1`, the “% Inhibition” value was -6% and the Z score was 1.03. `C[C@H]1CN(c2cc(Cl)ccc2Cl)CCN1C(=O)CN1CCC(=O)NC1=O` was tested, and the “% Inhibition” value was -8% and the Z score was 1.38. In the case of `CCOc1ccccc1NC(=O)CN(C)C`, the “% Inhibition” value is reported as -5% and the Z score is reported as 0.96. In the case of `CS(=O)(=O)c1ccc(OC[C@H]2C[C@@H](NC(=O)c3cccnc3)[C@H](O)[C@@H]2O)cc1`, the “% Inhibition” value is reported as -8% and the Z score is reported as 1.21. In the case of `Cc1ccc(CNC(=O)[C@H]2CCC[C@H]2NC(=O)c2ccncc2)cc1`, the “% Inhibition” value is reported as -3% and the Z score is reported as 0.45. `C[C@H](Nc1ccc2c(c1)OCO2)C(=O)N1CCCC1` was tested, and the “% Inhibition” value was -8% and the Z score was 1.51. In the case of `COc1cccc(F)c1[C@H](C)NCc1nnc(C2CC2)n1C`, the “% Inhibition” value is reported as 12% and the Z score is reported as -1.04. `CC[C@](O)(CNC(=O)c1cncnc1C1CC1)c1ccc(Cl)cc1` was tested, and the “% Inhibition” value was -1% and the Z score was 0.14. `O=C(Nc1cnns1)N1CCCN(C(=O)[C@@H]2CCCO2)CC1` was tested, and the “% Inhibition” value was -8% and the Z score was 1.42. `CCOC(=O)c1ncccc1NC(=O)C1C2CCCCC21` (stereo unspecified) was tested, and the “% Inhibition” value was -10% and the Z score was 1.49. For `Cn1cc(-c2cnn(-c3ccccn3)c2)cn1`, the “% Inhibition” value was 3% and the Z score was -0.41. In the case of `COc1cc(C(=O)N[C@H]2CC=CC[C@@H]2C(N)=O)ccn1`, the “% Inhibition” value is reported as -14% and the Z score is reported as 1.5. With `O=C(NCc1ccc(F)c(Cl)c1)c1nnn2c1c(=O)[nH]c1ccccc12` the “% Inhibition” value was 1% and the Z score was -0.1. For `CCc1sc(N(C(=O)C2CCCCC2)c2cccc(F)c2)nc1-c1ccccc1`, the “% Inhibition” value was 10% and the Z score was -1.28. In the case of `Cc1cc(C)n(-c2ccc(NCCNc3ncccc3C#N)nc2)n1`, the “% Inhibition” value is reported as -11% and the Z score is reported as 1.36. For `C[C@H]1CCCCN1CCNC(=O)c1cnc(-c2ccsc2)s1`, the “% Inhibition” value was -7% and the Z score was 0.72. For `CN(C)Cc1ccc(CN2CCNC(=O)C2)c2c1OC(F)(F)O2`, the “% Inhibition” value was -13% and the Z score was 1.8. `Cc1cccc(N2CCC(NC(=O)COc3ccc(N4CCN(C5CCCCC5)CC4)nn3)CC2)c1` was tested, and the “% Inhibition” value was -10% and the Z score was 1.12. For `CC(C)(NCc1ccc(F)cc1F)c1nc2c(c(C(N)=O)n1)OCO2`, the “% Inhibition” value was 8% and the Z score was -1.05. `Cc1ccc(CNC(=O)[C@H]2CCN(CC(F)(F)F)C2)nc1C` was tested, and the “% Inhibition” value was 4% and the Z score was -0.59.
